Measured values reported in PubChem BioAssay AID686978 (National Center for Advancing Translational Sciences (NCATS), 2013).
Several values for one entry are separate records, joined by “and”; a condition that tells them apart may be missing. Equal entries are not always repeated. Out of some 420,000 compounds screened, about 64,000 (15%) were called active. Inconclusive means that the source gave no clear call. Such entries were picked first, then a sample of the others. Calls come from the whole dose curve; as a rule, active = well fitted inhibition curve with a large enough effect; inconclusive = small, poorly fitted or top-dose-only effect; inactive = flat fitted curve, though single readings scatter. Where the call is inconclusive, the potency comes from a doubtful curve fit.

Test: qHTS for Inhibitors of human tyrosyl-DNA phosphodiesterase 1 (TDP1): qHTS in cells in absence of CPT; note: nearly all actives have a fitted effect of over 55% in size
Conditions: DT40 Tdp1-/- hTDP1 cells, no CPT, ATP luminescence, 48 h; activity change, negative = growth inhibition: at 46.2 µM (top of the series) unless noted
How it was run: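 Compound effects on proliferation are scored in DT40 Tdp1-/-;hTDP1 cells in the absence of CPT. ATP levels (CellTiter-Glo luminescence) are recorded after a ≥48 hr, 37 °C incubation.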
% is set by controls: 0 for no effect and ±100 for the full control effect; potency is the fitted concentration of half-maximal effect; tags give direction and shape of the fitted curve.

| Compound | Potency | activity change, negative = growth inhibition |
| --- | --- | --- |
| CSCCC(=O)N1CCCC(N2CCN(c3cccc(C(F)(F)F)c3)CC2)C1 (stereo unspecified) | inconclusive: 20.6 µM [inhibitor, single point] |  |
| Cn1c(N)c(C(=O)COC(=O)/C=C/c2ccc(Cl)cc2)c(=O)n(C)c1=O | inconclusive: 29.1 µM [inhibitor, single point] |  |
| N#Cc1cccc(NC(=O)Cn2cnc(S(=O)(=O)N3CCc4ccccc43)c2)c1 | inactive |  |
| O=C(Nc1ccc(F)cc1)Nc1cccc(Br)c1 | inconclusive: 18.4 µM [inhibitor, single point] |  |
| Cc1cc(NC(=O)COc2ccccc2C)ccc1NC(=O)c1cccs1 | active: 11.6 µM |  |
| COc1cccc(NC(=O)CC(C)S(=O)(=O)c2ccc3c(c2)NC(=O)CO3)c1 (stereo unspecified) | inconclusive: 5.8 µM [inhibitor, single point] |  |
| Cc1ccc(NC2Sc3ccccc3NC2=O)cc1 (stereo unspecified) | inconclusive: 23.1 µM [inhibitor, single point] |  |
| CCCN1C[C@H](CSC)C[C@@H]2c3cccc4[nH]cc(c34)C[C@H]21 | inconclusive: 29.9 µM [inhibitor, single point] |  |
| Cc1ccc(NC(=O)CN2C(=O)C3(SCC(=O)N3c3cccc(Cl)c3)c3ccccc32)cc1C (stereo unspecified) | inconclusive: 29.1 µM [inhibitor, single point] |  |
| COc1ccc(-c2c(-c3cc(OC)cc(OC)c3)n(C)c3ccc(-c4ccc5cc[nH]c5c4)cc23)cc1 | inconclusive: 23.1 µM [inhibitor, single point] |  |
| Cc1[nH]c2ccccc2c1C(=O)C(C)OC(=O)C1CCC1 (stereo unspecified) | inactive |  |
| O=C(Nc1ccccc1)c1cccc(N2C(=O)C3C4CC(C(Br)C4Br)C3C2=O)c1 (stereo unspecified) | inactive |  |
| O=C(Nc1ccnc(-c2cccnc2)n1)c1ccc(Cl)c(Cl)c1 | inactive |  |
| COc1ccc(CCNC(=O)CSc2nc(-c3ccc(F)cc3)cc(C(F)(F)F)n2)cc1OC | inconclusive: 29.1 µM [inhibitor, single point] |  |
| CCCCN(C(=O)CSc1nnc(Nc2ccc(C)c(C)c2)s1)c1c(N)n(Cc2ccccc2)c(=O)[nH]c1=O | inconclusive: 29.1 µM [inhibitor, single point] |  |
| Cc1cccc(C(=O)Nc2nnc(S(=O)(=O)N(C)Cc3ccco3)s2)c1 | inactive and inconclusive: 16.4 µM [inhibitor, partial curve] |  |
| c1ccc(CN2CC[C@@H](Nc3nccn4ccnc34)C2)cc1 | inactive |  |
| COc1cc(SC)ccc1C(=O)Nc1ncc(C)s1 | inconclusive: 18.4 µM [inhibitor, single point] |  |
| Cc1[nH]c(=O)[nH]c(=O)c1S(=O)(=O)N1CCCC1 | inactive |  |
| Cc1oc(-c2cccc(Cl)c2)nc1CN1CCCC(C(=O)NCc2ccco2)C1 (stereo unspecified) | inconclusive: 16.4 µM [inhibitor, single point] |  |
| O=S(=O)(Nc1cccc(-n2cnnn2)c1)c1cc(Cl)ccc1Cl | inactive |  |
| Nc1c(C(=O)Nc2ccc(C(=O)O)cc2)sc2nc3c(cc12)CCCC3 | inconclusive: 29.1 µM [inhibitor, single point] |  |
| COc1cccc(CN(C)C(=O)C2CCCN(C(=O)c3ccc(Cl)cc3)C2)c1 (stereo unspecified) | inconclusive: 29.1 µM [inhibitor, single point] |  |
| Cc1ccc(S(=O)(=O)N2CCN(C(=O)CN3C(=O)NC(C)(c4ccc(Cl)cc4)C3=O)CC2)c(C)c1 (stereo unspecified) | inconclusive: 29.1 µM [inhibitor, single point] |  |
| Cc1ccc(NS(=O)(=O)c2ccc3c(c2)CCCN3C(=O)C2CCC2)cc1Cl | active: 23.1 µM |  |
| Cc1ccc(OCCC(=O)Nc2ccc(S(=O)(=O)N3CCCC3)cc2)cc1 | active: 14.6 µM |  |

| Compound | Potency | activity change, negative = growth inhibition |
| --- | --- | --- |
| CCOC(=O)c1ccc(N/C(=N\S(=O)(=O)c2ccc(F)cc2F)c2ccccc2)cc1 | inconclusive: 20.6 µM [inhibitor, partial curve] |  |
| CCc1c(C#N)c(SCCC(=O)Nc2ccc(C)cc2)nc2c1C(=O)CC(C)(C)C2 | inconclusive: 25.9 µM [inhibitor, single point] |  |
| COc1ccc(CNC(=O)CN(Cc2ccccc2)S(=O)(=O)c2ccc(Cl)cc2)cc1 | active: 18.4 µM |  |
| O=C(NCc1ccc2c(c1)CCN2C(=O)c1ccc(Cl)cc1)c1cccc(F)c1 | inactive |  |
| O=c1cc(-c2ccccc2)oc2c1CCCC2 | inconclusive: 11.6 µM [inhibitor, partial curve] |  |
| COc1ccc(C2c3c(C)nn(-c4ccccc4)c3NC(=O)N2c2ccccc2)cc1 (stereo unspecified) | inactive |  |
| O=C(Cn1nc(CNc2ccc(Cl)cc2)[n+]2c1CCCCC2)c1ccc(Cl)cc1 | active: 23.1 µM |  |
| CCN(CC)C(=O)C(Sc1nnnn1-c1ccc(O)cc1)c1ccccc1 (stereo unspecified) |  | inconclusive: -31.9% [inhibitor] |
| COc1ccccc1-c1nccc(N2CCN(C)CC2)n1 | inactive |  |
| CCOC(=O)C[C@H]1c2ccc(C(F)(F)F)cc2S(=O)(=O)N1C(C)C | inconclusive: 35.5 µM [inhibitor, single point] |  |
| Cc1cc(SCC(=O)NCCC2=CCCCC2)nc2ccccc12 | inconclusive: 23.1 µM [inhibitor, single point] |  |
| CC(C)NCCOCCSc1ccc(Cl)cc1 | inconclusive: 18.4 µM [inhibitor, single point] |  |
| CSC1=NCCN1C(=O)c1ccc(Br)o1 | inactive |  |
| COC(=O)C1=C(C)NC(=O)NC1c1ccccc1Cl (stereo unspecified) | inactive |  |
| COc1ccc(CCNC(=O)c2ccc(Cl)cc2)cc1OC | inconclusive: 29.1 µM [inhibitor, single point] |  |
| O=C(COC(=O)c1cccc(Br)c1)NCc1ccco1 | inactive |  |
| COc1ccc(OC)c(NC(=O)CSc2nc3cccnc3n2C)c1 | active: 16.4 µM |  |
| CCOC(=O)C1=C(O)C(=O)N(Cc2cccnc2)C1c1ccc(OC)cc1 (stereo unspecified) | inconclusive: 0.0082 µM [inhibitor, full curve, poor fit] |  |
| Cc1cc(-c2ccccc2)n[nH]1 | inactive |  |
| COc1ccc(CCC(=O)NCC(=O)OCc2ccccc2)cc1 | inactive |  |
| O=C1OC2(c3ccccc31)c1cc(I)c(O)c(I)c1Oc1c2cc(I)c(O)c1I | inconclusive: 21.1 µM [inhibitor, single point] |  |
| O=C(NCc1ccc(Cl)c(Cl)c1)c1cc(C2CCCCN2C(=O)OCCF)on1 (stereo unspecified) | active: 23.1 µM |  |
| CCn1cc(CNC(=S)Nc2cccc(Cl)c2C)cn1 | inactive |  |
| O=C(CN(C(=O)c1csnn1)c1cccc2c1CCCC2)NC1CCCC1 | inactive |  |
| CCC(Oc1ccccc1)C(=O)Nc1cc(-c2ccccc2OC)nn1-c1ccccc1 (stereo unspecified) | active: 23.1 µM |  |
| CCOC(=O)c1c2c(c(=S)n(-c3ccccc3)c1N)CCC2 | inactive |  |

| Compound | Potency | activity change, negative = growth inhibition |
| --- | --- | --- |
| O=C(/C=C/c1ccccc1)CC(O)(c1ccccc1)C(F)(F)F (stereo unspecified) | active: 11.2 µM |  |
| CCOc1ccc(N(CC(=O)NCCOc2ccc(C)cc2)S(=O)(=O)c2ccccc2)cc1 | inconclusive: 20.6 µM [inhibitor, single point] |  |
| Cc1onc(-c2c(F)cccc2Cl)c1C(=O)N1CCc2ccccc21 | inconclusive: 18.4 µM [inhibitor, partial curve] |  |
| Cc1ccc2[nH]c3c(=O)n(Cc4ccccn4)cnc3c2c1 | inactive |  |
| O=C(N/N=C/c1cn(-c2ccccc2)nc1-c1ccccc1)c1ccco1 | inconclusive: 25.9 µM [inhibitor, single point] |  |
| CN1CCN(C(c2ccccn2)c2cc(Cl)c3cccnc3c2O)CC1 (stereo unspecified) | active: 6.51 µM |  |
| Cc1cc(Cl)nc(-c2ccccc2)n1 | inactive |  |
| C=C(C)CSC1=C(C#N)C(c2ccccc2Cl)CC(=O)N1 (stereo unspecified) | inconclusive: 23.1 µM [inhibitor, single point] |  |
| COc1ccc(NC2CCCN(C(=O)c3cccs3)C2)cc1 (stereo unspecified) | inactive |  |
| COc1ccc(OC)c(NC(=O)c2nc3ccccc3s2)c1 | inactive |  |
| COCCN1CCN(C(=O)C2CCC(=O)N(Cc3cccc(C(F)(F)F)c3)C2)CC1 (stereo unspecified) | inactive |  |
| CC(=O)Nc1ccc(NC(=O)CCCSc2nc3ccccc3s2)cc1 | inactive |  |
| CC(=O)Nc1sc2c(c1CN1CCCC1)CCCC2 | inactive |  |
| Cc1ccc(C)c(N2CN(CCC3=CCCCC3)CNC2=S)c1 | active: 20.6 µM |  |
| CN(C(=O)COC(=O)c1cccc(NS(=O)(=O)c2ccc(F)c(F)c2)c1)C1CCS(=O)(=O)C1 (stereo unspecified) | inconclusive: 2.91 µM [inhibitor, partial curve] |  |
| O=C(Cn1ncc2c1-c1ccccc1OC2)Nc1ccc(Cl)cn1 | inconclusive: 29.1 µM [inhibitor, single point] |  |
| Cc1ccc(Nc2nc(N)nc(CN3CCc4ccccc4C3)n2)cc1 | inconclusive: 23.1 µM [inhibitor, single point] |  |
| COc1cc(OC)cc(C2=Cc3ccccc3C(CC(C)=O)N2c2ccc(-c3cncnc3)cc2)c1 (stereo unspecified) | active: 16.4 µM |  |
| COc1cc(-c2[nH]ncc2CN2CCN(c3cccc(C)n3)CC2)cc(OC)c1OC | inconclusive: 23.1 µM [inhibitor, single point] |  |
| O=C(CCOc1ccccc1)N1CCCC(Nc2ccccc2)C1 (stereo unspecified) | inconclusive: 29.1 µM [inhibitor, single point] |  |
| COc1ccc2c(c1OC)C(=O)OC2C1c2c(cc3c(c2OC)OCO3)CCN1C (stereo unspecified) | active: 18.4 µM |  |
| Cc1ccc(S(=O)(=O)N[C@H](C(=O)OCC(=O)NC(=O)Nc2ccc3c(c2)OCCO3)C(C)C)cc1 | inconclusive: 29.1 µM [inhibitor, single point] |  |
| Cc1ccc(/C=N/c2sc3c(c2C(N)=O)CCCC3)o1 | inactive |  |
| COc1ccc(-c2csc(NC(=O)CN3C(=O)NC4(CCCC4)C3=O)n2)cc1 | inactive |  |
